From PubChem BioAssay AID504333 (National Center for Advancing Translational Sciences (NCATS), 2011)
In all, about 360,000 compounds went through this assay and about 16,000 (4.4%) were called active. The inconclusive results got no clear call from the source; some entries with a clear call stand among them for comparison. The call rests on the fitted dose curve; in most records, active means well fitted inhibition curve with a large enough effect; inconclusive means small, poorly fitted or top-dose-only effect; inactive means no such curve, though single readings can be large or run the other way. Potencies beside an inconclusive call are fits to weak or partial responses and may not hold up.

Biological target: Bromodomain adjacent to zinc finger domain protein 2B (Homo sapiens) (UniProt Q9UIF8)
Assay: qHTS Assay for Inhibitors of BAZ2B; further: nearly all actives have a fitted effect of over 60% in size
Conditions: AlphaScreen BAZ2B-H3K14Ac peptide displacement; activity change, negative = inhibition: at 114 µM (top of the series)
Summary of the method: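 In this displacement format the biotinylated H3(5-23) peptide acetylated at Lys14 serves as ligand at 50 nM, with BAZ2B at 50 nM in PBS pH 7.4 containing 0.01% Tween-20. Donor and acceptor beads are 10 ug/mL final.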
On the % scale 0 is the no-effect control and ±100 the full control effect; potency means the concentration at half of the fitted maximal effect; tags describe the fitted curve by direction and shape.

Sequence of UniProt Q9UIF8 (Q9UIF8 whole entry, looked up, the tested form may be a part): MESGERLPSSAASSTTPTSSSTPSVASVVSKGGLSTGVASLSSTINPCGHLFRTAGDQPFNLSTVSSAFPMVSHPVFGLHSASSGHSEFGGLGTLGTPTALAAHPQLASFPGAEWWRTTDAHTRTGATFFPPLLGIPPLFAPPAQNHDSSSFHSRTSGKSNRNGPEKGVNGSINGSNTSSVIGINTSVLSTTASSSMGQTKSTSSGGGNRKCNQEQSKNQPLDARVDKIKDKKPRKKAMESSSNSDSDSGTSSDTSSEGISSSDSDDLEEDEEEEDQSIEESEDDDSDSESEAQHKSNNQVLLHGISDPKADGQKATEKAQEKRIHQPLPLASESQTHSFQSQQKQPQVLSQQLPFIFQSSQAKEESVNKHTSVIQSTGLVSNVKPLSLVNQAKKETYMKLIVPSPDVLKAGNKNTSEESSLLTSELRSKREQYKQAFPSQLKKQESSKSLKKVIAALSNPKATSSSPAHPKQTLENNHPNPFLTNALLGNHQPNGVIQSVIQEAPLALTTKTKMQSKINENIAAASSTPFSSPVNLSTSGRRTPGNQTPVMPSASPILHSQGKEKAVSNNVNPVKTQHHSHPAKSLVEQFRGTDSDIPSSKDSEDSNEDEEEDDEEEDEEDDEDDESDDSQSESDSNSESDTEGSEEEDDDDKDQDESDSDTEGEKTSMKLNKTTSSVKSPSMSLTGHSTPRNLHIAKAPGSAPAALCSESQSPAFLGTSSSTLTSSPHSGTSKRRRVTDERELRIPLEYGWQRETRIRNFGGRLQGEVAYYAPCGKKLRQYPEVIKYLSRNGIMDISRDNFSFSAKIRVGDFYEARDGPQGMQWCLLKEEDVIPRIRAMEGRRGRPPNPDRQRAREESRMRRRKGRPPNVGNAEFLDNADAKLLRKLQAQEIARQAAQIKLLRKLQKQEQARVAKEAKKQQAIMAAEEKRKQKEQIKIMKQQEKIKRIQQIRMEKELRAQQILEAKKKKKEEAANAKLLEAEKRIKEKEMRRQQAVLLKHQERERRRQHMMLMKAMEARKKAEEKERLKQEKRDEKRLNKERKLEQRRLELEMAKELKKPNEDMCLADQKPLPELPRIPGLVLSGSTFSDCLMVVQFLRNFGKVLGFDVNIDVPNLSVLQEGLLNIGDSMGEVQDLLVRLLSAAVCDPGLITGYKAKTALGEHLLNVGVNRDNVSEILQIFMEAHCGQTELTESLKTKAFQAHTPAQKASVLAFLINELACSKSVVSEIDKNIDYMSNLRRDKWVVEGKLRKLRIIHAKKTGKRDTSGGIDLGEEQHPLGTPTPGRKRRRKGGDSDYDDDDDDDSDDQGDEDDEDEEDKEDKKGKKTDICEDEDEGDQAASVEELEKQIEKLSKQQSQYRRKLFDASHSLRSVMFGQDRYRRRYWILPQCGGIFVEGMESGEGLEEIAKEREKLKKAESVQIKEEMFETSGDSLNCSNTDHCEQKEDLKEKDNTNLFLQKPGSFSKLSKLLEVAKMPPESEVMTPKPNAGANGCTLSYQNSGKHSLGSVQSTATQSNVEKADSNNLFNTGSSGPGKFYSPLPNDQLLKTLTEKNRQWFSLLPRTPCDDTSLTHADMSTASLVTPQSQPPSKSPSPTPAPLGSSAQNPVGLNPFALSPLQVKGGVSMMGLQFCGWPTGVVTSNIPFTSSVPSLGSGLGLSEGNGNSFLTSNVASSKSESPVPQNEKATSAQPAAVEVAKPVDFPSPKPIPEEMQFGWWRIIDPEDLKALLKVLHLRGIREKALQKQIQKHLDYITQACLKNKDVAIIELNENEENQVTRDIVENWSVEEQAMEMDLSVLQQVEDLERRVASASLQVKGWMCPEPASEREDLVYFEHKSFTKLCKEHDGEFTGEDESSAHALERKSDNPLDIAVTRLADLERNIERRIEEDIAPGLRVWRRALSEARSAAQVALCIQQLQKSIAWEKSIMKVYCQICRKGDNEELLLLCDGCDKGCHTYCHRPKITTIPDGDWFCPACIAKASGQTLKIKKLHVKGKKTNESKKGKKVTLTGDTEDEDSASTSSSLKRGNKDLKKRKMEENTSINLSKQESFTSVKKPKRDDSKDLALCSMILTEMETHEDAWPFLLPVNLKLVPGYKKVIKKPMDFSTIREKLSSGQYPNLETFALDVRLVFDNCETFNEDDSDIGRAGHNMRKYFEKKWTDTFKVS

Compound | Potency | activity change, negative = inhibition
Cc1occc1C(=O)N/N=C/C=C/c1ccc(N(C)C)cc1 | inconclusive: 35.5 µM [inhibitor, full curve] | 
COc1ccc(N2CCN(C(=O)CSc3n[nH]c(-c4ccccc4)n3)CC2)cc1 |  | inactive: -26.1%
CC(=O)Nc1ccc(NC(=O)CSc2ncc(C(=O)Nc3ccc(F)cc3)c(=O)n2C)cc1 |  | inactive: -5.45%
COc1cccc(/C=N/NC(=O)C(=O)N2CCCC2)c1O | active: 15.8 µM | 
CN(C)C(=O)c1ccc(NC(=O)Cn2nnnc2-c2ccccc2F)cc1 |  | inactive: 1.53%
CSCC[C@H](NC(=O)c1ccc2ccccc2c1)C(=O)N1CCC2(CC1)NCCc1[nH]cnc12 | inconclusive: 44.7 µM [inhibitor, partial curve] | 
Nc1sc(-c2ccccc2)cc1C(=O)O | inconclusive: 89.1 µM [inhibitor, single point] | 
CCCOc1ccc(N/C=C/C(=O)c2ccc(OC)c(OC)c2)cc1 |  | inactive: -9.55%
COCCN=c1scc(-c2ccco2)n1/N=C/c1ccc(O)c(O)c1O | active: 7.94 µM | 
COc1ccc(NC(C)=O)cc1NC(C)c1nc2sc(C)c(C)c2c(=O)[nH]1 (configuration not stated) | inconclusive: 50.1 µM [inhibitor, partial curve] | 
CCOC(=O)CCNC(=O)N1CCCC(CNS(=O)(=O)c2cccs2)C1 (configuration not stated) |  | inactive: -4.28%
Cc1ccccc1Cn1c(=O)n(Cc2ccc3c(c2)OCO3)c(=O)c2oc3ccccc3c21 | inconclusive: 89.1 µM [inhibitor, single point] | 
Cc1ccc(OC(C)C(=O)Nc2cc(C)on2)cc1 (configuration not stated) | inconclusive: 79.4 µM [inhibitor, single point] | 
COc1cc(CNCc2ccc(C)cc2)cc(OC)c1OC | active: 70.8 µM | 
CCOc1ccc(-c2nc(C#N)c(NCc3ccco3)o2)cc1 | inconclusive: 39.8 µM [inhibitor, partial curve] | 
Cc1ccc(NC(=O)CN2C(=O)CCc3cc(S(=O)(=O)N4CCOCC4)ccc32)cc1N(C)C | inconclusive: 79.4 µM [inhibitor, partial curve] | 
NC(=O)C1CCN(C(=O)COc2ccc(Nc3ccccc3)cc2)CC1 | inconclusive: 50.1 µM [inhibitor, partial curve] | 
Cc1ccccc1CS(=O)(=O)Cc1ccc(C(=O)NCc2ccccn2)o1 | active: 50.1 µM | 
c1cc2c(cc1CN1CCN(C3CCCCCC3)CC1)OCO2 | active: 17.8 µM | 
Cc1c(C(=O)O)c(=O)n(-c2ccccc2)n1-c1ccccc1 | inconclusive: 79.4 µM [inhibitor, single point] | 
CC1Cn2c(nc(=O)c3c2NCN(CCc2ccccc2)C3)S1 (configuration not stated) |  | inactive: -4.45%
CC(=O)N1N=C(c2cccc([N+](=O)[O-])c2)OC1(C)c1cccs1 (configuration not stated) | inconclusive: 50.1 µM [inhibitor, partial curve] | 
CN1CCN(c2ncc3c(n2)CCN(Cc2cc(Br)cs2)C3)CC1 | inconclusive: 50.1 µM [inhibitor, partial curve] | 
CCN1C(=O)c2ccccc2Sc2ccc(NC(=O)COc3ccc(Cl)cc3)cc21 |  | inactive: 4.51%

Compound | Potency | activity change, negative = inhibition
O=C(CC1SC(=Nc2ccc(OC(F)F)cc2)N(CCN2CCOCC2)C1=O)Nc1ccccc1 (configuration not stated) | inconclusive: 79.4 µM [inhibitor, single point] | 
CC(=O)Nc1ccc(Oc2sc(C(=O)c3ccccc3)c(N)c2C#N)cc1 | inconclusive: 89.1 µM [inhibitor, single point] | 
O=C(NC(=S)NNC(=O)c1ccco1)c1ccccc1 |  | inactive: 4.26%
C[C@]1(CC/C(=C/CO)CO)[C@H](CO)CC[C@@]23COC(=O)C2=CCC[C@@H]31 |  | inactive: 6.42%
CCOC(=O)c1c(C)[nH]c(C(=O)C(C)OC(=O)c2cccc(OCc3c(C)noc3C)c2)c1C (configuration not stated) | inconclusive: 31.6 µM [inhibitor, single point] | 
Cc1cccc(OCCCCn2c(C3CC(=O)N(c4ccccc4Cl)C3)nc3ccccc32)c1 (configuration not stated) | active: 50.1 µM | 
CSc1cccc(NC(=O)C2CCCN(c3ncnc4c3nc3n4CCCCC3)C2)c1 (configuration not stated) | inconclusive: 79.4 µM [inhibitor, partial curve] | 
O=C(O)CCCNc1ccc([N+](=O)[O-])c(NCCCC(=O)O)n1 | inconclusive: 56.2 µM [inhibitor, partial curve, poor fit] | 
CCOC(=O)C(Nc1ccc2ccccc2c1)C(=O)OCC | active: 50.1 µM | 
CCC(=O)Nc1ccc(C(=O)NNC(=O)Cc2ccccc2)cc1 |  | inactive: -1.3%
N#CC(C(N)=O)=C1CCCCC1 |  | inactive: 0.168%
COc1cccc(C(=O)NCCSc2c(C)[nH]c3ccccc23)c1OC | inconclusive: 50.1 µM [inhibitor, partial curve] | 
Cc1cccc(NC(=O)c2cc([N+](=O)[O-])ccc2NCC2CCCO2)n1 (configuration not stated) | inconclusive: 35.5 µM [inhibitor, partial curve] | 
COc1ccccc1C(=O)NC1CCN(C(=S)NCCc2ccccc2)CC1 |  | inactive: -1.44%
COc1ccc(-n2cc(-c3ccccc3)c3c(NC4CCCCC4)ncnc32)cc1 | inconclusive: 6.31 µM [inhibitor, full curve] | 
CCCCC[n+]1ccn(-c2nc3ccccc3nc2[N-]S(=O)(=O)c2ccc(C)cc2)c1 |  | inactive: -31.9%
Cn1cnc(Sc2ncnc3nc[nH]c23)c1[N+](=O)[O-] | inconclusive: 79.4 µM [inhibitor, single point] | 
O=C(O)Cn1c(-c2cscn2)nc2ccccc21 | inconclusive: 89.1 µM [inhibitor, single point] | 
O=C(NNC(=O)c1cccc(Br)c1)C(=O)N1CCCCC1 |  | inactive: -1.28%
CN1CCc2c(sc(/N=C/c3cc(C(C)(C)C)ccc3O)c2C#N)C1 | inconclusive: 10 µM [inhibitor, full curve] | 
Cc1nn(-c2ccccc2)c(=S)c2ccccc12 | inconclusive: 39.8 µM [inhibitor, partial curve] | 
Cc1ccc([N+](=O)[O-])cc1S(=O)(=O)Nc1ccc(N2CCOCC2)cc1 | inconclusive: 35.5 µM [inhibitor, partial curve, poor fit] | 
COc1cccc(CN2CCN(Cc3ccco3)CC2)c1 | active: 50.1 µM | 
